# Test results published in paper PMC6919601, “Identification of Plasmodium dipeptidyl aminopeptidase allosteric inhibitors by high throughput screening” (PLoS ONE, 2019).
# Several values for one entry are separate records, joined by “and”; a condition that tells them apart may be missing. Equal values may be shown once. Screen size: about 110,000 compounds; about 230 (0.21%) showed an effect of 50% or more. The list shows a part of the results.
# Biological target: DPAP1 (Plasmodium falciparum, UniProt Q8IIJ9)
# Sequence (Q8IIJ9 whole entry, looked up): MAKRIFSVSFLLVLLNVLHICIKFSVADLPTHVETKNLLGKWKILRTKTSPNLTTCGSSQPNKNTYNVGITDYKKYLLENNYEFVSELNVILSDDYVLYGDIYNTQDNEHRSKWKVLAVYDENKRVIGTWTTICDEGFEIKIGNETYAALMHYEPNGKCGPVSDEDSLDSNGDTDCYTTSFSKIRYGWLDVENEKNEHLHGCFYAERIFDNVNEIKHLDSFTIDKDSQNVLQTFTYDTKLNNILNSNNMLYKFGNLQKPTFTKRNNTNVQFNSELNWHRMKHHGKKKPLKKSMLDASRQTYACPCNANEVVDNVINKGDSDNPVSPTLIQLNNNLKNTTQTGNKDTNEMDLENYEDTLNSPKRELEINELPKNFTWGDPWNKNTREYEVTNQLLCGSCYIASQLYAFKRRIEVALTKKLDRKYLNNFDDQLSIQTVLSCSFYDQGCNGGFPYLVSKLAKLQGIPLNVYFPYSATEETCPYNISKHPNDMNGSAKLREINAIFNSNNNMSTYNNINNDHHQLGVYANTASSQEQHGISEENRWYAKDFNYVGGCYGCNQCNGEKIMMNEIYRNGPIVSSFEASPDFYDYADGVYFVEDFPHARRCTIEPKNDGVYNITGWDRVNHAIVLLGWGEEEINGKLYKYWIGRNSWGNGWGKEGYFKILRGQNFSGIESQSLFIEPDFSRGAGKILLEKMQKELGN
# Experiment: primary screen, percent inhibition; read by cleavage of a fluorogenic dipeptide substrate; higher = more effect of the substance
# Parameters: species or system P. falciparum D10 trophozoite lysates; single well
# 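Note: 30 min substrate incubation versus DMSO and 10 µM JCP410 controls.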
row,SMILES,% Inhibition @ 10 uM
1,O=C(O)c1ccccc1Oc1nc(Oc2ccccc2C(=O)O)nc(N(c2ccccc2)c2ccccc2)n1,-7.42%
2,CN1CCN(C(=O)c2ccccc2[N+](=O)[O-])CC1,-1.38%
3,C/C(=C\c1ccccc1)C(C)OC(=O)Nc1ccccc1 (stereo not shown),1.35%
4,O=C(NCc1ccccc1Cl)C1C2C=CC3(CN(Cc4cccs4)C(=O)C13)O2 (stereo not shown),10.6%
5,O=C(NC1(C(F)(F)F)Oc2ccc(Cl)cc2O1)N1CCC2(CC1)OCCO2 (stereo not shown),-1.2%
6,CCOc1ccc(/C=C2\N=C(C3CCCCC3)OC2=O)cc1,0.605%
7,Cc1nn(CC(=O)NCCCN2CCc3ccccc3C2)c(=O)c2nn(-c3ccccc3)c(C)c12,-2.49%
8,O=C(CCn1c(=O)oc2ccccc21)Nc1ccccc1,1.4%
9,O=C(/C=C/c1cccc([N+](=O)[O-])c1)Nc1ccccc1O,1.35%
10,Cn1c(C(=O)N2CCC(C(=O)NCc3cccnc3)CC2)cc2sccc21,3.4%
11,N#CC1=C(N)Oc2cc(O)ccc2C1c1cc(CN2CCOCC2)cs1 (stereo not shown),8.11%
12,CC[C@H](NC(=O)C1(NC(=O)c2ccc(-c3ccccc3Cl)c(Cl)c2)CCCCCC1)C(=O)c1nc2ncccc2o1,1.61%
13,CC(=O)Nc1cccc(NC(=O)C23CC4CC(CC(C4)C2)C3)c1,0.962%
14,CCC(C)c1ccc(NC(=O)c2ccc(C)cc2)cc1 (stereo not shown),-1.48%
15,O=C(NCc1ccco1)c1ccc(CNc2c(N3CCCCC3)c(=O)c2=O)cc1,4.79%
16,Cc1ccc(-c2ccccc2)n1-c1cccc2cccnc12,5.3%
17,COc1cccc(CNc2cnn(C34CC5CC(CC(C5)C3C(=O)O)C4)c(=O)c2Cl)c1 (stereo not shown),10.1%
18,O=C(c1ccc([N+](=O)[O-])cc1Cl)N1CCN(c2ccc(Cl)cc2)CC1,2.16%
19,CCOC(=O)C1=C(CNC(C)C)NC(=O)NC1c1ccccc1 (stereo not shown),0.226%
20,O=C1CSC(c2ccc([N+](=O)[O-])cc2)N1Cc1ccccc1 (stereo not shown),-2%
21,CC(C)Cn1cc(NC(=O)Nc2ccc(Cl)cn2)c2ccccc2c1=O,0.358%
22,C/C=C(\C)CN(CCO)Cc1ccccc1,-6.62%
23,Cc1cccnc1Nc1nc(-c2ccc(O)cc2)cs1,4.96%
24,CC(O)(CC(=O)O)C12CC3CC(CC(C3)C1)C2 (stereo not shown),-1.97%
25,COc1ccc(C(=O)Nc2nc(C3COc4ccccc4O3)cs2)cc1OC (stereo not shown),-1.71%

row,SMILES,% Inhibition @ 10 uM
1,COCCn1c(CCC(=O)O)ccc1-c1ccc(F)cc1,2.21%
2,CC(C)(C)OC(=O)NC1CCN(S(=O)(=O)c2ccc3c(c2)OCCO3)CC1,-3.24%
3,Clc1ccc(N2N=C(c3cccs3)CC2c2cccs2)cc1 (stereo not shown),-6.27%
4,C=CCc1ccc(OCc2ccc(C(=O)Nc3ccc4c(c3)OCCO4)o2)c(OC)c1,4.84%
5,Cc1ccccc1OCC(O)Cn1cnc2ccccc21 (stereo not shown),-4.59%
6,CCCSc1nc(O)c(C(c2ccccc2)c2ccccc2)c(O)n1,4.9%
7,O=C(CN1C(=O)S/C(=C\c2ccc(Cl)cc2)C1=O)Nc1cccnc1,2.92%
8,CCCOc1ccc(CC(=O)Nc2ccc(Cl)cc2)cc1OC,-3.87%
9,Nc1nonc1-c1nc2ccccc2n1CC(=O)N1CCN(Cc2ccc3c(c2)OCO3)CC1,-2.91%
10,Cc1cccc(Cn2c(=O)n(C(C)C)c(=O)c3oc4ccccc4c32)c1,-3.15%
11,CC(C)CNC(=O)c1cc(S(=O)(=O)N2CCCC2)c(Cl)cc1Cl,-1.1%
12,CN1CCC(NCC2CCCCC2)CC1,-1.81%
13,COc1cc2c(cc1OC)C1(CCOCC1)CN(C)C2,0.774% and -1.96%
14,CCn1c(C)cc(/C=C2\NC(=O)N(CC(=O)Nc3ccccc3)C2=O)c1C,-2.84%
15,COc1ccccc1N1CCN(C(=O)CN(c2ccccc2)S(C)(=O)=O)CC1,-2.17%
16,Cc1ccc(-c2nc(CSCC(=O)NCCCOC(C)C)c(C)o2)cc1,0.689%
17,CN(C)c1ccnc(Sc2c([N+](=O)[O-])ncn2C)c1C#N,5%
18,Cc1cc(NS(=O)(=O)c2ccc(NS(=O)(=O)c3ccccc3)cc2)nc(C)n1,3.72%
19,NS(=O)(=O)c1ccc(NC(=O)c2cccs2)cc1,7.24%
20,C=Cc1ccc(Cn2c(C)c(CNCc3ccc(C)o3)c(C(=O)O)c2C)cc1,2.99%
21,Cc1cc(C)c2nc(N3CCCC(C(=O)NCCCN4CC(C)CC(C)C4)C3)sc2c1 (stereo not shown),3.4%
22,Oc1ncnc2[nH]c(N3CCCCC3)nc12,-2.91%
23,O=C(Cc1ccc(Cl)cc1)Nc1ccc(Br)cn1,6.22%
24,COc1ccccc1OCC(=O)N(Cc1ccco1)Cc1ccccc1Cl,-2.21%
25,O=C1CC(c2cccs2)c2ccc3ccccc3c2N1 (stereo not shown),-3.14%

row,SMILES,% Inhibition @ 10 uM
1,COc1ccc(CNC(=O)CCn2c(=O)c3cccn3c3cccnc32)cc1,3.36%
2,Cc1nn(Cc2ccc(C(=O)NC3CC3)o2)c(C)c1Cl,-3.9%
3,Cc1cc(C)n2nc(CC(=O)NCc3ccccc3Cl)nc2n1,4.47%
4,Cc1ccc(-n2nnnc2SCC(=O)c2ccc(O)cc2)cc1,-4.91%
5,COc1ccc(OC)c(/C=C2\CCCC3=C2Nc2ncnn2C3c2cc(OC)ccc2OC)c1 (stereo not shown),0.0842%
6,CCC1CCCCN1C1CC(=O)N(c2ccc(OC)cc2)C1=O (stereo not shown),-0.661%
7,N#CC1=C(N)Oc2c(ccc3ccccc23)C1c1ccc2c(c1)OCO2 (stereo not shown),4.26%
8,O=C(NC1CCN(Cc2ccccc2)CC1)C1(S(=O)(=O)c2ccc(Cl)cc2)CC1,5.19%
9,CCOC(=O)C1=CN(Cc2ccc(F)cc2)C=C(C(=O)OCC)C1c1cccc(F)c1,-1.46%
10,O=C(N/C(=C\c1cn(-c2ccccc2)nc1-c1ccccc1)C(=O)N1CCOCC1)c1ccc(Br)cc1,5.93%
11,COc1cccc2cc(-c3nc(NC(C)=O)sc3C)c(=O)oc12,0.379%
12,Cc1ccc(OCC(=O)NCCN2CCOCC2)cc1,7.35%
13,S=c1n(CN2CCOCC2)nc(Nc2ccccc2)n1-c1ccccc1,2.76%
14,CN1C=C2C(C#N)=C(N)C(C#N)(C#N)C(c3cccc(Cl)c3Cl)C2CC1 (stereo not shown),-3.27%
15,CSc1ccc(CN(CCN(C)C)Cc2ccccc2)cc1,-6.24%
16,Cc1cccc(-c2n[nH]c(S)n2)c1,43.9%
17,Fc1cccc(Cl)c1CN1CCN(C/C=C/c2ccccc2)CC1,-2.02%
18,O=C(CN1C(=O)CSc2ncccc21)NCc1ccccc1F,-3.57%
19,O=C(NCc1ccccc1Cl)c1nnc(-c2ccncc2)o1,0.974%
20,CC1=CCC2C(=O)N(c3ccc(C(=O)Nc4ccccc4)cc3)C(=O)C2C1 (stereo not shown),1.7%
21,COc1cccc(OCCNS(=O)(=O)c2ccc(C3CCCCC3)cc2)c1,8.96%
22,Nc1nonc1C(=O)NCCNC(=O)c1cccs1,-3.33%
23,COc1ccccc1Nc1nc(-c2ccc(S(=O)(=O)N3CCCC3)cc2)cs1,1.41%
24,O=C(CCCc1nnc2n3nc(-c4ccccc4)nc3c3ccccc3n12)NCCc1ccccc1,-4.69%
25,CC(C)Oc1ccc(CC2CC(=O)NC2=O)cc1 (stereo not shown),1.24%

row,SMILES,% Inhibition @ 10 uM
1,CCCCC(=C1C(=O)CC(c2ccccc2)CC1=O)N1CCCC1 (stereo not shown),-6.7%
2,COc1ccc(Br)cc1/C=c1\sc2nc(=O)c(C)nn2c1=O,-5.2%
3,N#CC1=C(N)Oc2cc(N)ccc2C1c1cccc(Cl)c1Cl (stereo not shown),3.1%
4,c1cncc(CNCc2cccn2-c2nnc(N3CCOCC3)s2)c1,-3.09%
5,COc1ccc(C2Nc3c(ccc4ccccc34)C3=C2CC(C)(C)CC3=O)cc1OC (stereo not shown),9.73%
6,O=C(NCCCCNC(=O)c1cccc(F)c1)c1cccc(F)c1,-3.18%
7,O=C(Nc1ccc(Cl)c(Cl)c1)C(O)c1ccccc1 (stereo not shown),-4.35%
8,CC1CCN(c2nc(-c3ccccc3)cc(C(F)(F)F)n2)CC1,5.41%
9,CCOC(=O)c1c(NC(=O)CNC(C)C)sc2c1CCCCC2,-3.38%
10,COc1ccc(OC)c(C2C3=C(O)CCCC3=NC(C)=C2C(=O)Nc2ccccc2OC)c1 (stereo not shown),-1.06%
11,CCCC1=NN(S(=O)(=O)c2ccc(C)cc2)C(O)(C(F)(F)F)C1 (stereo not shown),-2.77%
12,Cc1ccc(-n2nc3c(=O)n(CCCC(=O)NCCc4ccc(Cl)cc4)nc(C)c3c2C)cc1,-7.74%
13,CC1=C(C(=O)OCc2ccccc2)C(c2ccccc2)NC(=O)N1 (stereo not shown),1.38%
14,CCCc1nn(-c2ccc(F)cc2)c(O)c1/C=N/CCN1CCN(C(=O)c2ccccc2)CC1,0.503%
15,CCOC(=O)c1cnc2c(C(F)(F)F)cccc2c1NCCN(C)C,-0.169%
16,COCCCNC(=O)c1oc2ccc3c(c2c1C)C(O)CC1(CCCC1)O3 (stereo not shown),1.14%
17,CC(Oc1ccccc1)C(=O)n1nc(-c2ccco2)nc1NCc1ccc(Cl)cc1 (stereo not shown),-5.08%
18,CCOC(=O)C1=C(CS(=O)(=O)c2ccccc2)NC(=O)NC1c1cc(OC)c(OC)c(OC)c1 (stereo not shown),-5.79%
19,O=C(c1ccccc1F)N1CCN(Cc2ccccc2Br)CC1,-6.94%
20,COc1ccc(C(=O)N2CCC(C)CC2)cc1Br,0.145%
21,OCCN1CCN(Cc2ccoc2)CC1,1.04%
22,CCc1ccc(C2C(C#N)=C(N)Oc3[nH]nc(C)c32)cc1 (stereo not shown),-5.63%
23,CCOc1ccc(C2NCCc3cc(OC)c(OC)cc32)cc1OCC (stereo not shown),1.93%
24,Cc1csc2nc(CNS(=O)(=O)N(C)C)cn12,4.14%
25,Cc1ccc(NC(=O)C(CC(C)C)N2Cc3ccccc3C2=O)nc1 (stereo not shown),-0.234%
